These results are taken from ChEMBL document CHEMBL4888484, “Replenishing the malaria drug discovery pipeline: Screening and hit evaluation of the MMV Hit Generation Library 1 (HGL1) against asexual blood stage Plasmodium falciparum ,using a nano luciferase reporter read-out” (2022).

The whole screen tested about 150,000 compounds, of which about 540 (0.36%) showed an effect of 50% or more. The list shows a part of the results.

The test relates to Plasmodium falciparum. Nature of the test: Primary screen in NF54 nanoGlo assay, in single point, at 2uM, 72h; a lower Z score goes with more inhibition. The test is classed as functional, Erythrocyte. The settings on record: timepoint 72 hour.
Broadly, the % Inhibition is the drop in the measured response relative to a control, in per cent. `Cc1noc(-c2c(C)sc(C)c2S(=O)(=O)Nc2ccccc2Cl)c1C`: the “% Inhibition” value is reported as -12% and the Z score is listed as 2.08.
Taken in the same sequence, the figures for `NC(=O)CN1C(=O)[C@]2(CCN(c3ncnc4c3CCC4)C2)c2ccccc21` were -6% and 0.74.
On the same counts, the results for `O=S(=O)(Cc1ccon1)N1CCN(Cc2nccs2)CC1` are 2% and -0.32.
On the same counts, the results for `COCC[C@H]1CN(c2nccnc2C#N)CCO1` are -10% and 1.93.
With `CN(C(=O)CCCOc1ccc(F)cc1)C1CCS(=O)(=O)CC1`, the “% Inhibition” value is reported as -2% and the Z score came to 0.24.
On the same counts, the results for `CC(NC(C)C1CN(C(=O)OC(C)(C)C)C1)c1ccccc1Br` (centres undefined) are 34% and -0.72.
Consider `Cc1cc(C)cc(CN2CCN(C(=O)CCCn3cccn3)CC2=O)c1`, for which the “% Inhibition” value was -6% and the Z score came out at 1.14.
On the same counts, the results for `COc1ccc(CCNC(=O)CN2C(=O)CCc3cc(Br)ccc32)cc1OC` are -13% and 1.76.
On the same counts, the results for `C=CCOc1ccc([C@H]2CC(=O)Nc3c2c(C)nn3-c2nncc(-c3ccc(C)cc3)n2)cc1OC` are 6% and -1.06.
Taken in the same sequence, the figures for `Cc1ccc(/N=C(\NCc2cccnc2)NC(=O)c2cccc(Cl)c2)cc1` were -16% and 1.51.
`Cn1ncnc1NC(=O)NCC1(C)CCCCCC1`: the “% Inhibition” value is -2% and the Z score is on record as 0.29.
Regarding `CC1CCN(CCOc2nc(C(F)(F)F)ccc2C(N)=O)CC1`, the “% Inhibition” value came out at 7% and the Z score was -1.41.
On the same counts, the results for `Cc1cc2n(n1)CCCN(C(=O)Nc1c(C)c(-c3ccccc3)nn1C)C2` are 1% and -0.21.
As to `O=C(C1CCOCC1)N1CCC(Cc2ccc(COc3cccnc3)cc2)CC1`, the “% Inhibition” value is recorded as -20% and the Z score was 3.79.
On the same counts, the results for `C#Cc1cc(F)c(NCc2ncnn2C(C)(C)C)c(F)c1` are -6% and 0.57.
On the same counts, the results for `Cn1cc(CN2CCC[C@H](n3cncn3)C2)c(C2CCCC2)n1` are -9% and 1.77.
Regarding `CCc1cc(CN(C)Cc2nnc(C3CC3)o2)on1`, the “% Inhibition” value is -12% and the Z score turned out to be 2.31.
On the same counts, the results for `CCc1c(C)nn2c(c1C)c(-c1ccccc1)[n+]1c(C)c(CC)c(C)nc21` are 53% and -10.21.
Take `CCN(CCC(=O)Nc1c(Cl)cccc1Cl)C[C@H]1CCCO1`: the “% Inhibition” value was -4% and the Z score stood at 0.54.
As to `Cc1cc(CNC(=O)c2ccc(F)cc2)on1`, the “% Inhibition” value is recorded as -14% and the Z score amounted to 2.04.
On the same counts, the results for `COCc1nncn1C1CN(C(=O)Cc2cc(OC)cc(OC)c2)C1` are 36% and -4.79.
On the same counts, the results for `CN(C[C@H]1CCOC1)C(=O)CCc1ccncc1` are -11% and 1.76.
Consider `Cc1cc(C)c(CN2CCN(C(=O)c3nc[nH]n3)CC2)c(-n2cccn2)c1`, for which the “% Inhibition” value was -2% and the Z score is given as 0.37.
On the same counts, the results for `O=C(Cn1ccc2ccccc21)N1C[C@H]2C[C@@H](C1)C1CCCC(=O)N1C2` (some centres undefined) are 5% and -0.82.
In the case of `C#CCN(Cc1nnc(C2CC2)o1)CC(F)(F)F`, the “% Inhibition” value is reported as -5% and the Z score is 0.47.
Take `CCCCN1C(=O)CC[C@@H]2CN(C(=O)c3ccc(COC)o3)CC[C@@H]21`: the “% Inhibition” value is recorded as -3% and the Z score was 0.57.
On the same counts, the results for `CCc1nc(C)c(C(=O)N(C)C[C@H]2COc3ccccc3O2)o1` are -7% and 0.78.
On the same counts, the results for `Cc1cc(Cl)c2oc(C(=O)N3CCN(C(=O)c4ccco4)CC3)c(C)c2c1` are -11% and 2.16.
For `Cc1cccc(-n2ncc3c2CCC[C@@H]3NC(=O)c2ccnc(-n3cnnn3)c2)c1C`, the “% Inhibition” value was -31% and the Z score is given as 3.27.
On the same counts, the results for `CN(C)Cc1ccc(NC(=O)c2cc(F)cc3c(=O)c4cc(F)ccc4[nH]c23)cc1` are 77% and -11.59.
As for `Cc1ccsc1[C@H]1CCN(C(=O)c2ccc(N)nc2)C[C@@H]1O`, the “% Inhibition” value is given as 4% and the Z score was -0.79.
On the same counts, the results for `CC[C@@H](C(=O)Nc1ccc(C)c(Cl)c1)n1nc(-c2cccc(OC)c2)c2c(C)onc2c1=O` are -13% and 2.4.
As for `C=CCCS(=O)(=O)Nc1ccc(C(F)(F)F)nc1`, the “% Inhibition” value is given as -12% and the Z score is on record as 1.49.
With `CCOc1ccc(NC(=O)c2sc3ncnc(N4CCCCC4)c3c2C)cc1`, the “% Inhibition” value is recorded as -9% and the Z score was 1.35.
On the same counts, the results for `N#Cc1cc(-n2cnnc2)ccc1N1CCCC1` are -16% and 2.73.
For `Cc1ccc(N2C(=O)[C@@H]3C(c4cccnc4)=NO[C@@H]3C2=O)cc1`, the “% Inhibition” value amounted to 7% and the Z score was -0.94.
Regarding `CCOc1cccc(NC(=O)N(C)CCC2(O)CCCC2)c1`, the “% Inhibition” value was determined as 4% and the Z score was -0.59.
As to `CCCn1cnc(NC(=O)c2cccc(CN3CCC[C@H](O)C3)c2)n1`, the “% Inhibition” value is -15% and the Z score was determined as 2.28.
Turning to `O=S(=O)(NCc1cccnc1-n1ccnc1)c1c[nH]c2cccc(F)c12`, the “% Inhibition” value is -12% and the Z score was 1.82.
On the same counts, the results for `Cc1cccc(CS(=O)(=O)N2CC(n3ccnn3)C2)c1` are -5% and 0.61.
Taken in the same sequence, the figures for `Cc1ccccc1-n1cc(CN2CCNC(=O)[C@@H]2c2ccccc2Cl)nn1` were -2% and 0.44.
Taken in the same sequence, the figures for `Cc1ocnc1CNC(=O)N1CC(C)(C)C[C@H]1c1ccccc1` were -1% and 0.13.
